The list shows a part of the results.
What was measured:
Experiment in all cases: glycan array binding signal (z-score within array); higher = stronger binding
Details in all cases: glycan notation: IUPAC condensed, linker removed
[1] = biological target: Neu5Ac(a2-3)Gal(b1-4)GlcNAc(b1-3)[Neu5Ac(a2-3)Gal(b1-4)GlcNAc(b1-6)]GalNAc
In short: (§1)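 The binding signal is a Z-score computed within each array and averaged over linkers. Arrays of the same protein sequence at different concentrations or buffers were also averaged together. Data originate from 3228 arrays in the Consortium for Functional Glycomics database, kept only where the protein sequence was available.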

[2] = biological target: Neu5Ac(a2-3)Gal(b1-4)GlcNAc(b1-6)GalNAc
In short: as §1

[3] = biological target: Neu5Ac(a2-3)Gal(b1-4)GlcNAc(b1-6)[Gal(b1-3)]GalNAc
In short: as §1

[4] = biological target: Neu5Ac(a2-3)Gal(b1-4)GlcNAc(b1-6)[Neu5Ac(a2-3)Gal(b1-3)]GalNAc
In short: as §1

[5] = biological target: Neu5Ac(a2-3)Gal(b1-4)GlcNAc6S
In short: as §1

[6] = biological target: Neu5Ac(a2-3)Gal(b1-4)[Fuc(a1-3)]GlcNAc
In short: as §1

[7] = biological target: Neu5Ac(a2-3)Gal(b1-4)[Fuc(a1-3)]GlcNAc(b1-2)Man
In short: as §1

[8] = biological target: Neu5Ac(a2-3)Gal(b1-4)[Fuc(a1-3)]GlcNAc(b1-3)Gal
In short: as §1

[9] = biological target: Neu5Ac(a2-3)Gal(b1-4)[Fuc(a1-3)]GlcNAc(b1-3)Gal(b1-4)GlcNAc
In short: as §1

[10] = biological target: Neu5Ac(a2-3)Gal(b1-4)[Fuc(a1-3)]GlcNAc(b1-3)Gal(b1-4)[Fuc(a1-3)]GlcNAc(b1-3)Gal(b1-4)[Fuc(a1-3)]GlcNAc
In short: as §1

[11] = biological target: Neu5Ac(a2-3)Gal(b1-4)[Fuc(a1-3)]GlcNAc(b1-3)GalNAc
In short: as §1

[12] = biological target: Neu5Ac(a2-3)Gal(b1-4)[Fuc(a1-3)]GlcNAc(b1-6)[Gal(b1-3)]GalNAc
In short: as §1

[13] = biological target: Neu5Ac(a2-3)Gal(b1-4)[Fuc(a1-3)]GlcNAc(b1-6)[Neu5Ac(a2-3)Gal(b1-3)]GalNAc
In short: as §1

[14] = biological target: Neu5Ac(a2-3)Gal(b1-4)[Fuc(a1-3)]GlcNAc6S
In short: as §1

[15] = biological target: Neu5Ac(a2-3)Gal6S(b1-4)GlcNAc
In short: as §1

[16] = biological target: Neu5Ac(a2-3)Gal6S(b1-4)[Fuc(a1-3)]GlcNAc
In short: as §1

Neu5Ac(a2-3)GalNAc = biological target: Neu5Ac(a2-3)GalNAc
In short: as §1

[17] = biological target: Neu5Ac(a2-3)GalNAc(b1-4)GlcNAc
In short: as §1

[18] = biological target: Neu5Ac(a2-3)[GalNAc(b1-4)]Gal(b1-4)Glc
In short: as §1

[19] = biological target: Neu5Ac(a2-3)[GalNAc(b1-4)]Gal(b1-4)GlcNAc
In short: as §1

[20] = biological target: Neu5Ac(a2-3)[GalNAc(b1-4)]Gal(b1-4)GlcNAc(b1-3)GalNAc
In short: as §1

[21] = biological target: Neu5Ac(a2-3)[Neu5Ac(a2-6)]GalNAc
In short: as §1

Neu5Ac(a2-6)Gal = biological target: Neu5Ac(a2-6)Gal
In short: as §1

[22] = biological target: Neu5Ac(a2-6)Gal(b1-3)GlcNAc(b1-3)[Gal(b1-4)GlcNAc(b1-6)]Gal(b1-4)Glc
In short: as §1

Neu5Ac(a2-6)Gal(b1-4)Glc = biological target: Neu5Ac(a2-6)Gal(b1-4)Glc
In short: as §1

[23] = biological target: Neu5Ac(a2-6)Gal(b1-4)GlcNAc
In short: as §1

[24] = biological target: Neu5Ac(a2-6)Gal(b1-4)GlcNAc(b1-2)Man
In short: as §1

[25] = biological target: Neu5Ac(a2-6)Gal(b1-4)GlcNAc(b1-2)Man(a1-3)Man(b1-4)GlcNAc(b1-4)GlcNAc
In short: as §1

[26] = biological target: Neu5Ac(a2-6)Gal(b1-4)GlcNAc(b1-2)Man(a1-3)[Gal(b1-4)GlcNAc(b1-2)Man(a1-6)]Man(b1-4)GlcNAc(b1-4)GlcNAc
In short: as §1

[27] = biological target: Neu5Ac(a2-6)Gal(b1-4)GlcNAc(b1-2)Man(a1-3)[GlcNAc(b1-2)Man(a1-6)]Man(b1-4)GlcNAc(b1-4)GlcNAc
In short: as §1

[28] = biological target: Neu5Ac(a2-6)Gal(b1-4)GlcNAc(b1-2)Man(a1-3)[GlcNAc(b1-4)][Neu5Ac(a2-6)Gal(b1-4)GlcNAc(b1-2)Man(a1-6)]Man(b1-4)GlcNAc(b1-4)GlcNAc
In short: as §1

[29] = biological target: Neu5Ac(a2-6)Gal(b1-4)GlcNAc(b1-2)Man(a1-3)[Man(a1-6)]Man(b1-4)GlcNAc(b1-4)GlcNAc
In short: as §1

[30] = biological target: Neu5Ac(a2-6)Gal(b1-4)GlcNAc(b1-2)Man(a1-3)[Neu5Ac(a2-3)Gal(b1-4)GlcNAc(b1-2)Man(a1-6)]Man(b1-4)GlcNAc(b1-4)GlcNAc
In short: as §1

[31] = biological target: Neu5Ac(a2-6)Gal(b1-4)GlcNAc(b1-2)Man(a1-3)[Neu5Ac(a2-6)Gal(b1-4)GlcNAc(b1-2)Man(a1-6)]Man(b1-4)GlcNAc(b1-4)GlcNAc
In short: as §1

[32] = biological target: Neu5Ac(a2-6)Gal(b1-4)GlcNAc(b1-2)Man(a1-3)[Neu5Ac(a2-6)Gal(b1-4)GlcNAc(b1-2)Man(a1-6)]Man(b1-4)GlcNAc(b1-4)[Fuc(a1-6)]GlcNAc
In short: as §1

[33] = biological target: Neu5Ac(a2-6)Gal(b1-4)GlcNAc(b1-2)Man(a1-6)Man(b1-4)GlcNAc(b1-4)GlcNAc
In short: as §1

[34] = biological target: Neu5Ac(a2-6)Gal(b1-4)GlcNAc(b1-2)Man(a1-6)[Gal(b1-4)GlcNAc(b1-2)Man(a1-3)]Man(b1-4)GlcNAc(b1-4)GlcNAc
In short: as §1

[35] = biological target: Neu5Ac(a2-6)Gal(b1-4)GlcNAc(b1-2)Man(a1-6)[GlcNAc(b1-2)Man(a1-3)]Man(b1-4)GlcNAc(b1-4)GlcNAc
In short: as §1

[36] = biological target: Neu5Ac(a2-6)Gal(b1-4)GlcNAc(b1-2)Man(a1-6)[Man(a1-3)]Man(b1-4)GlcNAc(b1-4)GlcNAc
In short: as §1

[37] = biological target: Neu5Ac(a2-6)Gal(b1-4)GlcNAc(b1-2)[Neu5Ac(a2-6)Gal(b1-4)GlcNAc(b1-4)]Man(a1-3)[GlcNAc(b1-4)][Neu5Ac(a2-6)Gal(b1-4)GlcNAc(b1-2)[Neu5Ac(a2-6)Gal(b1-4)GlcNAc(b1-6)]Man(a1-6)]Man(b1-4)GlcNAc(b1-4)GlcNAc
In short: as §1

[38] = biological target: Neu5Ac(a2-6)Gal(b1-4)GlcNAc(b1-2)[Neu5Ac(a2-6)Gal(b1-4)GlcNAc(b1-4)]Man(a1-3)[GlcNAc(b1-4)][Neu5Ac(a2-6)Gal(b1-4)GlcNAc(b1-4)Man(a1-6)]Man(b1-4)GlcNAc(b1-4)GlcNAc
In short: as §1

[39] = biological target: Neu5Ac(a2-6)Gal(b1-4)GlcNAc(b1-2)[Neu5Ac(a2-6)Gal(b1-4)GlcNAc(b1-6)]Man(a1-6)[Neu5Ac(a2-6)Gal(b1-4)GlcNAc(b1-2)Man(a1-3)][GlcNAc(b1-4)]Man(b1-4)GlcNAc(b1-4)GlcNAc
In short: as §1

[40] = biological target: Neu5Ac(a2-6)Gal(b1-4)GlcNAc(b1-3)Gal(b1-3)GlcNAc
In short: as §1

[41] = biological target: Neu5Ac(a2-6)Gal(b1-4)GlcNAc(b1-3)Gal(b1-4)GlcNAc
In short: as §1

[42] = biological target: Neu5Ac(a2-6)Gal(b1-4)GlcNAc(b1-3)Gal(b1-4)GlcNAc(b1-2)Man(a1-3)[Neu5Ac(a2-6)Gal(b1-4)GlcNAc(b1-3)Gal(b1-4)GlcNAc(b1-2)Man(a1-6)]GalNAc
In short: as §1

B1: AAA (Anguilla anguilla), Q7SIC1 (protein)
chain: VIPEGYTQENVAVRGKATQSAQLRGEHAANSEASNAIDGNRDSNFYHGSCTHSSGQANPWWRVDLLQVYTITSVTITNRGDCCGERISGAEINIGQHLASNGVNNPECSVIGSMATGETKTFHCPAPMIGRYVVTYLPTSESLHLCEVEVNVDKPAAA
[1]
  glycan array binding signal (z-score): -0.192
[2]
  glycan array binding signal (z-score): -0.175
[3]
  glycan array binding signal (z-score): -0.017
[4]
  glycan array binding signal (z-score): -0.184
[5]
  glycan array binding signal (z-score): -0.093
[6]
  glycan array binding signal (z-score): -0.098
[7]
  glycan array binding signal (z-score): -0.24
[8]
  glycan array binding signal (z-score): -0.378
[9]
  glycan array binding signal (z-score): -0.328
[10]
  glycan array binding signal (z-score): 0.079
[11]
  glycan array binding signal (z-score): 0.084
[12]
  glycan array binding signal (z-score): 0.235
[13]
  glycan array binding signal (z-score): 0.034
[14]
  glycan array binding signal (z-score): -0.059
[15]
  glycan array binding signal (z-score): -0.179
[16]
  glycan array binding signal (z-score): -0.149
Neu5Ac(a2-3)GalNAc
  glycan array binding signal (z-score): -0.283
[17]
  glycan array binding signal (z-score): -0.131
[18]
  glycan array binding signal (z-score): -0.131
[19]
  glycan array binding signal (z-score): -0.265
[20]
  glycan array binding signal (z-score): 0.511
[21]
  glycan array binding signal (z-score): -0.516
Neu5Ac(a2-6)Gal
  glycan array binding signal (z-score): -0.203
[22]
  glycan array binding signal (z-score): -0.118
Neu5Ac(a2-6)Gal(b1-4)Glc
  glycan array binding signal (z-score): -0.134
[23]
  glycan array binding signal (z-score): -0.147
[24]
  glycan array binding signal (z-score): -0.26
[25]
  glycan array binding signal (z-score): -0.162
[26]
  glycan array binding signal (z-score): -0.121
[27]
  glycan array binding signal (z-score): -0.131
[28]
  glycan array binding signal (z-score): -0.297
[29]
  glycan array binding signal (z-score): -0.147
[30]
  glycan array binding signal (z-score): -0.232
[31]
  glycan array binding signal (z-score): -0.44
[32]
  glycan array binding signal (z-score): -0.096
[33]
  glycan array binding signal (z-score): -0.176
[34]
  glycan array binding signal (z-score): -0.183
[35]
  glycan array binding signal (z-score): -0.127
[36]
  glycan array binding signal (z-score): -0.316
[37]
  glycan array binding signal (z-score): -0.255
[38]
  glycan array binding signal (z-score): -0.208
[39]
  glycan array binding signal (z-score): -0.245
[40]
  glycan array binding signal (z-score): -0.285
[41]
  glycan array binding signal (z-score): -0.202
[42]
  glycan array binding signal (z-score): 0.057
